According to article PMC4336329 (PLoS ONE, 2015):
Screen size: about 310,000 compounds; about 14,000 (4.5%) showed an effect of 50% or more. The effect is printed as a negative number. This is one part of the list.

Target: human ether-à-go-go-related gene (hERG) potassium channel (human, UniProt Q12809)
Test: primary screen, population patch clamp on CHO cells stably expressing hERG
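Further: peak tail current of the secondary pulse compared with the same well before compound.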

Chain of human ether-à-go-go-related gene (hERG) potassium channel (Q12809 whole entry, looked up): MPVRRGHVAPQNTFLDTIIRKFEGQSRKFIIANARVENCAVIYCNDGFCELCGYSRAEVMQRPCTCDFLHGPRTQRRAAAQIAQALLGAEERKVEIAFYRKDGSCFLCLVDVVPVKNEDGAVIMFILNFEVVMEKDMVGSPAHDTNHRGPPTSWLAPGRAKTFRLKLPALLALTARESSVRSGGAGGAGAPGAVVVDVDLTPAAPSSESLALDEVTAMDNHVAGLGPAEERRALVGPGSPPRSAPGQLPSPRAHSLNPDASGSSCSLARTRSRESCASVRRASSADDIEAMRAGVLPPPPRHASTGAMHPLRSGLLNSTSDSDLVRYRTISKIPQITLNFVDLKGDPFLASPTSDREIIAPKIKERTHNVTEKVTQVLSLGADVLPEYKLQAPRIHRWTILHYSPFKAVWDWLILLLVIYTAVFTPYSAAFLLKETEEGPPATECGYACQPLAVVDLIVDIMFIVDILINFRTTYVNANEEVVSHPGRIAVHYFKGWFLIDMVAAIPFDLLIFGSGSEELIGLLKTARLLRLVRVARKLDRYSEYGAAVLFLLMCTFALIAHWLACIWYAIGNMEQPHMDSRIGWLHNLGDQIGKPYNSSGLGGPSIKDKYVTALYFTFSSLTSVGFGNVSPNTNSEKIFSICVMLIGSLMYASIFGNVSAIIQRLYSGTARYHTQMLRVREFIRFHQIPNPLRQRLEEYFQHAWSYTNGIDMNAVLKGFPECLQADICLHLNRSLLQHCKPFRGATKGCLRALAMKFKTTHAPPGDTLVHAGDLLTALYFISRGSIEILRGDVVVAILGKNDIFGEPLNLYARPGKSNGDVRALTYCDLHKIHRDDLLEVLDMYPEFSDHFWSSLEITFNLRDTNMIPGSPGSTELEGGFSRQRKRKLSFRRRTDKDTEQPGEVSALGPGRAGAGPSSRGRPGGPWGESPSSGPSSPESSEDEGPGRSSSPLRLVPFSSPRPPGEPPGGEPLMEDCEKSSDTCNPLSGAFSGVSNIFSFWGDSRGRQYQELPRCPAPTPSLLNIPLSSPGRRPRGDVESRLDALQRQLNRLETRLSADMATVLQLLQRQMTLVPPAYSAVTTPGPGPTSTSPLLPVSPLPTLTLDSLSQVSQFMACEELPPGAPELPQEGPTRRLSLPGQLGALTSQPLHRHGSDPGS

SMILES | hERG current change (%, negative = inhibition) at 10uM [%]
COc1cccc(-c2nc(CC(=O)O)cs2)c1OC | 14.9
O=C(O)C1C2C=CC(O2)C1C(=O)NCc1ccccc1Br (stereo not shown) | 16.7
COc1cc(C2C(C(=O)c3ccco3)=C(O)C(=O)N2c2cc(C)on2)cc(Br)c1O (stereo not shown) | 6.84
CCCCc1cc(=O)oc2cc(OCC(=O)NCc3ccccn3)ccc12 | -38.3
CCn1nc(C(=O)OCC(=O)N2c3ccccc3CC2C)c2ccccc2c1=O (stereo not shown) | -11.9
CCOC(=O)C(=CNc1cccnc1Oc1ccc(C)c2c1CCC2)C(=O)OCC | -5.67
COc1ccc(S(=O)(=O)N2CCN(c3ncccn3)CC2)cc1OC | -4.15
CCOc1ccc(NC(=S)NC(=O)C2CCCC2)cc1 | 3.43
Nc1ncc(CCN2CCOCC2)c(-c2ccc(F)cc2)n1 | 13.4
COC(=O)c1cc(-c2cccc(OC)c2)on1 | 8.04
CCCc1cc(=O)[nH]c(SCc2cc(=O)oc3cc(C)c(C(C)C)cc23)n1 | -26.8
C[C@@]12CCC=C[C@H]1[C@H](c1ccc3ccccc3c1)N(Cc1ccccc1)C2=O | 8.39
COc1cccc(-c2ccc(NC(=O)C3CCCN(Cc4cnn(C(C)C)c4)C3)cc2)c1 (stereo not shown) | -79.7
Cc1cc(OCc2ccc(F)cc2)nc(-c2ccccc2O)n1 | 3.2
COc1ccc(OCC(=O)N(Cc2cccs2)C2CCS(=O)(=O)C2)cc1 (stereo not shown) | -6.75
Cc1ccc(C(=O)C2=C(O)C(=O)N(CCCN(C)C)C23C(=O)N(C)c2ccccc23)o1 (stereo not shown) | 6.71
Cc1nn(CC(=O)OCC(=O)c2ccc(OC(F)F)cc2)c(C)c1[N+](=O)[O-] | -10.1
Cn1c2ccccc2c2nn(-c3ccccc3)c(=O)cc21 | -1.53
O=C(COC(=O)Cn1cnc2ccccc21)NCCc1ccc(Cl)cc1 | -6.55
CN1CCN(C(=O)c2cnn(-c3ccccc3)c2NC(=O)c2ccccc2)CC1 | -17.8
Cc1cc(C(=O)NC2CCCc3c2cnn3-c2ccc(C)c(C)c2)n(C)n1 (stereo not shown) | -8.37
Cc1ccc(S(=O)(=O)NCCC(=O)Nc2nccs2)cc1 | 23.3

SMILES | hERG current change (%, negative = inhibition) at 10uM [%]
COC(=O)c1ccc(COc2ccccc2/C=C(\C#N)C(=O)Nc2ccc(C)cc2)cc1 | 1.57
COc1ccc(CCNC(=O)COC(=O)c2ccc(N3CCCC3=O)cc2)cc1OC | 25.6
Cc1ccc2nc(CNC(=O)C3CCC(=O)N(Cc4ccccc4F)C3)cn2c1 (stereo not shown) | -2.21
CCn1cc(C(=O)N2CCCCC2)c2ccccc21 | 0.331
NNc1nc(-c2ccccc2)nc2sc3c(c12)CCCC3 | 13.3
Cc1ccc(C(C)C)c(OCC(=O)NN=C2CCCC2)c1 | -0.556
Cc1ccc(N(C)C(=O)CCNC(=O)Cn2cnc3ccccc3c2=O)cc1C | -8.84
CN(C)c1nc(N)c([N+](=O)[O-])c(NCC2CCCO2)n1 (stereo not shown) | 7.07
O=S(=O)(c1cccc(C(F)(F)F)c1)N1CCC(c2nc3ccccc3[nH]2)CC1 | 0.277
NC(=O)c1ccc(NC(=O)COC(=O)CCN=C2NS(=O)(=O)c3ccccc32)cc1 | 0.194
CC1CN(C(=S)Nc2ccc(S(N)(=O)=O)cc2)CC(C)O1 (stereo not shown) | 6.63
COc1ccc(CCNC(=O)CSc2nc(C)nc3c2c(=O)n(C)c(=O)n3C)cc1OC | 6.28
Cc1cc(C)n2ncc(C(=O)O)c2n1 | 9.1
CCOc1ccc(C(=O)NC2CCN(S(C)(=O)=O)CC2)cc1 | 8.09
CCOC(=O)c1sc(SCc2ccccc2)c2c1CC(C)(C)CC2=O | -3.74
Cc1nc2c(ncn2-c2ccccc2)c(=O)n1NC(=O)CN1CCN(C)CC1 | 8.15
O=C1c2ccccc2C(=O)N1Cc1nc2ccccc2c(=O)n1CCN1CCOCC1 | 2.37
CSCCC(NC(N)=O)C(=O)NCc1ccccc1Cl (stereo not shown) | 0.00838
O=[N+]([O-])c1ccc(OCC(O)CNCCNc2nccc(C(F)(F)F)n2)cc1 (stereo not shown) | -79.2
Cc1cc(Cl)ccc1NC(=O)Nc1c(C)n(-c2ccccc2)c(=O)n1C | -5.96
O=C(NC1CCC(O)CC1)c1ccc(S(=O)(=O)NCc2ccco2)cc1 (stereo not shown) | 25
CC(C)c1ccc(NC(=O)C(c2ccccc2)N(C)C(=O)c2cnccn2)cc1 (stereo not shown) | -23.9

SMILES | hERG current change (%, negative = inhibition) at 10uM [%]
COc1ccc(CCc2nnc(CCC(=O)N(C)Cc3ccnc4ccccc34)o2)cc1 | -37.7
O=C(CN1C(=O)NC2(CCCCCCC2)C1=O)NC(=O)NCc1ccco1 | 1.73
O=C(Cc1ccc(NC2=NC3CS(=O)(=O)CC3S2)cc1)NCc1ccccc1 (stereo not shown) | 14
CCOc1ccc(CC(=O)Nc2sc(Cc3ccccc3)cc2C(N)=O)cc1OCC | 11.8
COC(=O)C1CCN(C(=O)C(C)Oc2ccc(Cl)cc2Cl)CC1 (stereo not shown) | 12.3
COc1ccc(S(=O)(=O)C(C#N)c2nc3ccccc3nc2N2CCCCC2)cc1 (stereo not shown) | -5.93
CC(=O)/C(=C/N(C)C)C(=O)Nc1ccc(Cl)cc1Cl | 9.14
COc1cccc(/C=N/NC(=S)Nc2cccnc2)c1 | -0.981
CCOC(=O)c1c(C)[nH]c(C)c1C(=O)CSc1nc(N)cc(N)n1 | 18.6
Cc1cccc(N=C2CSC(=O)N2)c1 | 4.69
COc1ccc(OCCCn2cc(/C=C3/C(=N)N4C=C(C)SC4=NC3=O)c3ccccc32)cc1 | 11.1
COc1ccccc1C(=O)OCC(=O)NC(=O)NCc1ccccc1 | 2.26
Cn1c(SCc2nc3ccccc3[nH]2)nnc1-c1cnccn1 | 10.2
CC1=NOC(=O)/C1=C\c1ccc2c(c1)OCO2 | 12.6
Cc1cccn2c(=O)c3cc(C(=O)N4CCOCC4)n(C)c3nc12 | -32.1
CC1CN(C(c2ccco2)c2sc3ncnn3c2O)CC(C)O1 (stereo not shown) | -11.4
CCOc1ccc(S(=O)(=O)NCc2ccco2)cc1 | 1.61
CN(Cc1ccc(F)cc1)C(=O)c1cc(COc2ccc(F)cc2F)on1 | 1.65
COc1ccc(C2=CSC3=NCCN23)cc1Cl | -2.92
O=C(N/N=C/C=C/c1ccco1)c1ccccc1Cl | 10.3
Cc1c(Cl)c(-c2n[nH]c(=S)n2Cc2ccco2)nn1C | 15.5
O=C(COc1ccc(Cl)cc1)NCc1nnc(SCC(=O)Nc2ccccc2)o1 | -10

SMILES | hERG current change (%, negative = inhibition) at 10uM [%]
CCOC(=O)N1CCN(CC(O)COc2ccc(OC)cc2C(C)(C)C)CC1.Cl (stereo not shown) | -12
O=C(COC(=O)c1ccc(F)c(S(=O)(=O)N2CCOCC2)c1)NCCc1ccccc1 | -3.98
COc1ccc2sc(N(CCCN(C)C)C(=O)c3nc4ccccc4s3)nc2c1.Cl | -5.36
COCC(C)n1c(C)cc(C(=O)COC(=O)CNC(=O)c2ccccc2)c1C (stereo not shown) | -5.45
Cc1nc(N2CCN(C(=O)c3ccco3)CC2)nc2c1C(=O)CC(C)C2 (stereo not shown) | -14.1
COc1ccc(S(=O)(=O)NCc2csc(C)n2)cc1OC | 12.1
COCCNC(=O)CCc1ccc(S(=O)(=O)Nc2ccc(C)cc2)cc1 | -11.7
COc1cc(/C=C2\C(=O)NC(=O)N(c3ccccc3)C2=O)cc(OC)c1OC | 4.29
Cc1cc(C(=O)N2CCCC(N3CCN(c4cccc(Cl)c4)CC3)C2)n(C)n1 (stereo not shown) | -4.79
CN(C(=O)n1cnc2ccccc21)c1ccccc1 | -7.33
O=C(Cc1ccccc1)N/N=C/c1ccc(OCC(=O)Nc2ccccc2)cc1 | -14.2
CC(=O)NCC(=O)OC(C)C(=O)Nc1ccc(C(C)=O)cc1 (stereo not shown) | -10.4
CCCn1c(=N)c(C(=O)NCC2CCCO2)cc2c(=O)n3cccc(C)c3nc21 (stereo not shown) | -76.3
CCOc1cc2c(cc1OCC)-n1cccc1C(c1ccc(C)cc1C)NC2.Cl (stereo not shown) | -0.599
Fc1ccc(-c2c[nH]c(=S)n2Cc2ccccc2)cc1 | -38
O=C(Nc1nc2ccccc2s1)Nc1ccc(F)cc1F | 17.6
O=C(NCCc1ccc(Cl)cc1)C12CC3CC(CC(O)(C3)C1)C2 | 9.52
CCN1CCN(S(=O)(=O)c2c(C)[nH]c(C)c2C(=O)N2CCCCC2)CC1 | 14.4
Cc1cc(C)cc(-n2cc(C(=O)O)c(=O)cc2C)c1 | 15.8
O=C(Nc1ccc2oc(-c3ccc4ccccc4c3)nc2c1)c1ccc2c(c1)OCCO2 | 20.7
O=C1CC(NS(=O)(=O)c2ccc([N+](=O)[O-])cc2)CN1c1ccc2c(c1)OCCO2 (stereo not shown) | -1.64
COc1ccc(NS(=O)(=O)c2ccc(C)c(C(=O)N3CCCCCCC3)c2)cc1 | -25.4
